{"source": "paper PMC3290997", "about": "(Biochemistry, 2012)", "proteins": {"B1": {"name": "SecA (enzyme)", "chain": "not shown"}}, "molecular_target": "the molecule itself", "assay": "cross-linking", "data": [{"protein": "B1", "values": [{"measurement": "stoichiometry N", "value": 2}]}]}
